Reference: PubChem BioAssay (NCATS)
The list shows a part of the results. The main result of the screen is listed elsewhere. These columns were measured beside it and carry no call. Most of these compounds were active or inconclusive in the main read-out, so they are no random draw. Potencies come from curve fits of mixed quality, noted in brackets. Square brackets hold non-standard residues; d marks the D form. Side chains are listed from the residue outwards. Peptide text beside a SMILES is read from it. * marks the point of attachment. X1 = CCC(C)C(N)C1=NC(C(=O)*)CS1; Orn = NCCC[CH](N)C(=O)O

Test: qHTS Assay for Lipid Storage Modulators (AID 1519)
Settings: Drosophila S3 cells, BODIPY lipid droplet/cell ratio, laser cytometry, cells loaded with oleic acid
Summary of the method: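 Cells seeded at 5,000 per well were treated with compounds over a concentration series and loaded with oleic acid (400 uM, as added). Lipid droplet fluorescence (488 nm excitation, 500-530 nm channel) was read by laser-scanning cytometry and normalized to 20 uM Triacsin C.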

[1] = measured here: cell count channel max response
[2] = measured here: cell number channel AC50
[3] = measured here: lipid (BODIPY) channel AC50
[4] = measured here: lipid channel max response
Tags tell the direction and shape of the fitted curve.

| Compound | max response [1] [%] | AC50 [2] | AC50 [3] | max response [4] [%] |
| --- | --- | --- | --- | --- |
| CN=C1N[C@H](c2ccccc2)N(c2ccccc2)S1 | -16 | 6.31 µM [rising, full curve, poor fit] | 7.08 µM [rising, partial curve, poor fit] | -86.1 |
| CN(C)c1ncc2nc(CCc3ccccc3)c(=O)n(C[C@H]3CCCO3)c2n1 | 10 | 0.355 µM [rising, partial curve] | 0.112 µM [rising, full curve] | 17.3 |
| CN(C)c1ncc2nc(-c3ccccc3)c(=O)n(Cc3cccs3)c2n1 | 17.6 | 4.47 µM [rising, single point] | 4.47 µM [rising, full curve, poor fit] | 24 |
| N#Cc1cccc(-c2cncnc2NCc2cccnc2)c1 | 55.4 | 14.1 µM [rising, partial curve, poor fit] | 11.2 µM [rising, partial curve] | 63.1 |
| COc1ccccc1-c1cncnc1Nc1ccccc1 | 40.1 | 2.51 µM [rising, full curve, poor fit] | 5.01 µM [rising, partial curve, poor fit] | 46.3 |
| CN(C)C(=O)c1ccc(-c2cncnc2NCc2ccccc2)cc1 | 24.2 | 4.47 µM [rising, single point] | 7.08 µM [rising, single point] | 30.9 |
| Clc1cccc(C=NC=Nc2cccc(Cl)c2)c1 | 73.6 | 2.51 µM [rising, full curve] | 2.51 µM [rising, full curve] | 101 |
| N#CCCn1c(=O)c(CCc2ccccc2)nc2cnc(Nc3ccccc3)nc21 | 31.8 | 0.447 µM [rising, partial curve] | 0.447 µM [rising, full curve, poor fit] | 35.7 |
| Cc1ccccc1-c1ccc2ncnc(-n3ccnc3)c2c1 | 24.3 | 0.631 µM [rising, full curve, poor fit] | 1.58 µM [rising, partial curve] | 26.9 |
| CC(C)(C)Cn1nc(-c2ccc(Cl)cc2)c2c(N)ncnc21 | 80.5 | 12.6 µM [rising, partial curve, poor fit] | 12.6 µM [rising, partial curve, poor fit] | 98.9 |
| CC(=O)c1c(O)c(C)c(O)c2c1OC1=CC(=O)C(C(C)=O)C(=O)[C@@]12C (some centres not stated) | 63.9 | 31.6 µM [rising, partial curve] | 31.6 µM [rising, partial curve] | 88.4 |
| O=C(c1cnccn1)N1CCC2(CC1)CCN(c1ncccn1)CC2 | 14.2 | 3.98 µM [rising, single point] | 3.55 µM [rising, partial curve] | 25.6 |
| COc1cccc(Cn2c(=O)c(-c3cn(C)c4ccccc34)nc3cncnc32)c1 | 33.4 | 0.355 µM [rising, full curve, poor fit] | 0.316 µM [rising, full curve] | 44.7 |
| COc1cccc(-c2cc(NCc3ccc(OC)cc3OC)ncn2)c1 | 28.7 | 1.58 µM [rising, full curve, poor fit] | 1.78 µM [rising, full curve] | 35.2 |
| CCCOc1ccccc1-c1nc2n[nH]nc2c(=O)[nH]1 | 91.1 | 28.2 µM [rising, partial curve, poor fit] | 28.2 µM [rising, partial curve, poor fit] | 115 |
| CN(C)c1ccc(-c2cncnc2Nc2ccccc2)cc1 | 24.1 | 1.58 µM [rising, full curve] | 1.26 µM [rising, full curve] | 32.2 |
| CCOC(=O)c1ccc(OC(=O)CCCCCN=C(N)N)cc1 | 38.6 | 28.2 µM [rising, partial curve, poor fit] | 28.2 µM [rising, partial curve, poor fit] | 53.1 |
| CCNc1ncc2nc(CCc3ccccc3)c(=O)n(-c3ccccc3)c2n1 | 20.4 | 0.282 µM [rising, full curve, poor fit] | 0.251 µM [rising, full curve] | 31.3 |
| CN1CCc2cccc3c2[C@@H]1Cc1ccc(O)c(O)c1-3 | 92.6 | 25.1 µM [rising, partial curve] | 25.1 µM [rising, partial curve] | 127 |

| Compound | max response [1] [%] | AC50 [2] | AC50 [3] | max response [4] [%] |
| --- | --- | --- | --- | --- |
| COc1ccccc1-c1cc(Nc2ccn[nH]2)ncn1 | 28.6 | 1.58 µM [rising, full curve, poor fit] | 1.41 µM [rising, full curve, poor fit] | 38.9 |
| CCC(C)C(N)C1=NC(C(=O)NC(CC(C)C)C(=O)NC(CCC(=O)O)C(=O)NC(C(=O)NCCCCC2NC(=O)C(CC(N)=O)NC(=O)C(CC(=O)O)NC(=O)C(Cc3cnc[nH]3)NC(=O)C(Cc3ccccc3)NC(=O)C(C(C)CC)NC(=O)C(CCCN)NC2=O)C(C)CC)CS1 (stereo not drawn) (cyclo(DNK([Ile-Glu-Leu-X1])[Orn]IFH); configuration not given here) | 32.7 | 20 µM [rising, partial curve] | 31.6 µM [rising, single point] | 43.1 |
| O=C(c1csnn1)N1CCC2(CCCN(c3ccccn3)C2)CC1 | 15 | 0.282 µM [rising, full curve, poor fit] | 0.355 µM [rising, full curve, poor fit] | 23.9 |
| COc1cccc(Cn2c(=O)c(CCc3ccccc3)nc3cnc(N4CCOCC4)nc32)c1 | 46.4 | 3.98 µM [rising, full curve] | 3.55 µM [rising, full curve] | 55.6 |
| COc1ccc(CNc2ccnc(-c3cccc(C#N)c3)n2)c(OC)c1 | 10 | 3.98 µM [rising, partial curve] | 6.31 µM [rising, partial curve, poor fit] | 6.55 |
| CN(C)c1ccc(-c2nc(Nc3ccncc3)c3ccccc3n2)cc1 | -69.5 | 20 µM [falling, partial curve] | 14.1 µM [falling, partial curve] | -89.5 |
| COc1cc2oc(-c3ccccc3)cc(=O)c2cc1O | 104 | 12.6 µM [rising, partial curve] | 14.1 µM [rising, partial curve] | 141 |
| COc1ccc(-c2oc3ccc(C)cc3c(=O)c2O)cc1OC | 95.2 | 7.94 µM [rising, full curve, poor fit] | 17.8 µM [rising, partial curve, poor fit] | 122 |
| CN(C)c1ncc2nc(CCc3ccccc3)c(=O)n(Cc3cccs3)c2n1 | 38 | 1.41 µM [rising, full curve] | 1.26 µM [rising, full curve] | 47.1 |
| O=[N+]([O-])c1cccc2c[nH]nc12 | 99.6 | 15.8 µM [rising, partial curve, poor fit] | 14.1 µM [rising, partial curve, poor fit] | 131 |
| Cn1c(=O)c(CCc2ccccc2)nc2cnc(Oc3ccccc3)nc21 | 16.6 | 1.78 µM [rising, partial curve] | 0.794 µM [rising, single point] | 22.6 |
| COc1cccc(-c2nccc(NCCc3c[nH]c4ccc(OC)cc34)n2)c1 | 11 | 1.12 µM [rising, partial curve] | 0.794 µM [rising, full curve] | 13 |
| Cc1cnc(CNc2ccnc(-c3cccc(C#N)c3)n2)cn1 | 40.5 | 1.41 µM [rising, full curve] | 1.41 µM [rising, full curve] | 48.1 |
| C[C@@H]1CNCCN1S(=O)(=O)c1cccc2cnccc12 | 94.3 | 14.1 µM [rising, partial curve] | 14.1 µM [rising, partial curve] | 112 |
| c1cncc(-c2ccc3ncnc(NCCN4CCOCC4)c3c2)c1 | 27.1 | 0.708 µM [rising, full curve, poor fit] | 0.708 µM [rising, full curve] | 35.6 |
| O=c1c(-c2cc(F)cc(F)c2)nc2cnc(N3CCOCC3)nc2n1CCc1ccccc1 | 30 | 2 µM [rising, full curve] | 1.78 µM [rising, full curve] | 40 |
| CN(C)c1ccc(-c2nc(-n3ccnc3)c3ccccc3n2)cc1 | -2.01 | 0.0251 µM [rising, full curve] | 0.0251 µM [rising, full curve] | 8.35 |
| Clc1ccccc1-c1nccc(NCCN2CCOCC2)n1 | 34 | 1.12 µM [rising, full curve, poor fit] | 1.12 µM [rising, full curve, poor fit] | 39.3 |
| COC(=O)CC[C@@H](C)[C@H]1CC[C@H]2[C@@H]3CC[C@@H]4C[C@H](O)CC[C@]4(C)[C@H]3C[C@H](O)[C@]12C | 43.9 | 14.1 µM [rising, partial curve, poor fit] | 14.1 µM [rising, partial curve, poor fit] | 51.5 |
